Experimental data published in PMC10874384.
These are yes or no findings as the source states them, for the method shown. For some assays here: Binding seen in cells or lysates may run through a third protein. Some binding calls cover weakened binding; strength is not graded here. Sequences can lack the tags named with a protein.

Chains of the proteins cited; added tags and fusions are not shown.
UniProt Q09490: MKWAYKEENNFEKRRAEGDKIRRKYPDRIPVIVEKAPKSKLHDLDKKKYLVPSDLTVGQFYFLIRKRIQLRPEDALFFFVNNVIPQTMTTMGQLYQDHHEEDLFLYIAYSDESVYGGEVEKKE

Columns and labels:
[1] = biological target: LGG-1 (LC3, GABARAP, and GATE-16 family-1), yeast two-hybrid fusion (C. elegans) (UniProt Q09490); assay: two-hybrid; DupLEX-A system: bait plasmid pEG202Gtwy and prey plasmid pJG4-5Gtwy in yeast EGY48 with the lacZ reporter plasmid pSH18-34; transformants on X-gal plates; which partner was bait is not stated
[2] = biological target: T1, EPG-7 C-terminal fragment (residues 1227-1338, Claw domain), yeast two-hybrid fusion (C. elegans) (UniProt Q22342); assay: as above
T1 sequence: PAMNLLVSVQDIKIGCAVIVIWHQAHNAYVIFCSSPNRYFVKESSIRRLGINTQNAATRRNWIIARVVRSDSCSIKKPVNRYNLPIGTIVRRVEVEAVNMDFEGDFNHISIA

[3] = biological target: T2, FLAG-EPG-7 C-term (N-terminal FLAG-tagged EPG-7 C-terminal fragment, Claw domain) (C. elegans) (UniProt Q22342); assay: pull-down; in vitro binding assay: purified FLAG-EPG-7 C-term (about 0.5 ug) and in vitro translated T7-ALLO-1b (4 uL) in 10 mM Tris-HCl pH 7.4, 150 mM NaCl, 0.5 mM EDTA, 0.1% Triton X-100, 1 mM PMSF, 4 C, 1 h; captured on anti-FLAG M2 magnetic beads; blot with anti-T7 and anti-FLAG; only the target purified
T2 sequence: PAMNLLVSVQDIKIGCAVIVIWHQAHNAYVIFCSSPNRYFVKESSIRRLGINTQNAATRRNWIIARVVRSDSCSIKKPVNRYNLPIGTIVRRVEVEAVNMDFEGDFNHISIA

Binder | binding [1] | binding [2] | binding [3]
ALLO-1b (allophagy-1 isoform b), full length, yeast two-hybrid fusion (protein, UniProt Q9U389 1-402) MNDPLDSLSNDEFEIIETFDPETEDREDQWSIQQSIRIEPISIQMPNTLQSQRAPSPVGSKAPESLKDEDPDRTPEASIVETPLLTETLKEDRTPMSTPLASLVNSSQSPEFTLQNMSIVSESECSNNSSLVNVADVESTEIALRTSLLLVSELKSQLQAAKMSESTLLKSNSNHEIEENKKLSEKMEVMKNEFELKMQESAASVEKVIQEKDSAIEQLKVQLAQSQQVAELWKQGAEKNSNAQYSDSKTTIDRLLEENSKLRNLVDEEVARRLEESERRKLAEDQLKHARGGSVFDPPASFVASQLAERTTYSLNLEHELITLRKELEETKEALKKSVEESSNKDEIVSALHELAGPTGEHPHARFERAGDQQSEAEMSSTWSAGRLLELSRQIVHFISHQ | binds | binds | –
T7-ALLO-1b (full-length ALLO-1b, in vitro translated) (protein, UniProt Q9U389 1-402) MNDPLDSLSNDEFEIIETFDPETEDREDQWSIQQSIRIEPISIQMPNTLQSQRAPSPVGSKAPESLKDEDPDRTPEASIVETPLLTETLKEDRTPMSTPLASLVNSSQSPEFTLQNMSIVSESECSNNSSLVNVADVESTEIALRTSLLLVSELKSQLQAAKMSESTLLKSNSNHEIEENKKLSEKMEVMKNEFELKMQESAASVEKVIQEKDSAIEQLKVQLAQSQQVAELWKQGAEKNSNAQYSDSKTTIDRLLEENSKLRNLVDEEVARRLEESERRKLAEDQLKHARGGSVFDPPASFVASQLAERTTYSLNLEHELITLRKELEETKEALKKSVEESSNKDEIVSALHELAGPTGEHPHARFERAGDQQSEAEMSSTWSAGRLLELSRQIVHFISHQ | – | – | binds
ALLO-1 N-terminal region (residues 1-180), yeast two-hybrid fusion (domain or fragment, UniProt Q9U389 1-180) MNDPLDSLSNDEFEIIETFDPETEDREDQWSIQQSIRIEPISIQMPNTLQSQRAPSPVGSKAPESLKDEDPDRTPEASIVETPLLTETLKEDRTPMSTPLASLVNSSQSPEFTLQNMSIVSESECSNNSSLVNVADVESTEIALRTSLLLVSELKSQLQAAKMSESTLLKSNSNHEIEEN | – | binds | –
T7-ALLO-1b D11A/E12A (FIR mutant, in vitro translated) (protein, UniProt Q9U389 1-402) MNDPLDSLSNAAFEIIETFDPETEDREDQWSIQQSIRIEPISIQMPNTLQSQRAPSPVGSKAPESLKDEDPDRTPEASIVETPLLTETLKEDRTPMSTPLASLVNSSQSPEFTLQNMSIVSESECSNNSSLVNVADVESTEIALRTSLLLVSELKSQLQAAKMSESTLLKSNSNHEIEENKKLSEKMEVMKNEFELKMQESAASVEKVIQEKDSAIEQLKVQLAQSQQVAELWKQGAEKNSNAQYSDSKTTIDRLLEENSKLRNLVDEEVARRLEESERRKLAEDQLKHARGGSVFDPPASFVASQLAERTTYSLNLEHELITLRKELEETKEALKKSVEESSNKDEIVSALHELAGPTGEHPHARFERAGDQQSEAEMSSTWSAGRLLELSRQIVHFISHQ | – | – | no binding
